Data reported in PMC4336329 (PLoS ONE, 2015).
Among all 310,000 compounds or so, about 14,000 (4.5%) showed an effect of 50% or more. Effects have a minus sign here. The list shows a part of the results.

target: human ether-à-go-go-related gene (hERG) potassium channel (human, UniProt Q12809); experiment: primary screen, population patch clamp on CHO cells stably expressing hERG
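Also: peak tail current of the secondary pulse compared with the same well before compound.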

Chain of human ether-à-go-go-related gene (hERG) potassium channel (Q12809 whole entry, looked up): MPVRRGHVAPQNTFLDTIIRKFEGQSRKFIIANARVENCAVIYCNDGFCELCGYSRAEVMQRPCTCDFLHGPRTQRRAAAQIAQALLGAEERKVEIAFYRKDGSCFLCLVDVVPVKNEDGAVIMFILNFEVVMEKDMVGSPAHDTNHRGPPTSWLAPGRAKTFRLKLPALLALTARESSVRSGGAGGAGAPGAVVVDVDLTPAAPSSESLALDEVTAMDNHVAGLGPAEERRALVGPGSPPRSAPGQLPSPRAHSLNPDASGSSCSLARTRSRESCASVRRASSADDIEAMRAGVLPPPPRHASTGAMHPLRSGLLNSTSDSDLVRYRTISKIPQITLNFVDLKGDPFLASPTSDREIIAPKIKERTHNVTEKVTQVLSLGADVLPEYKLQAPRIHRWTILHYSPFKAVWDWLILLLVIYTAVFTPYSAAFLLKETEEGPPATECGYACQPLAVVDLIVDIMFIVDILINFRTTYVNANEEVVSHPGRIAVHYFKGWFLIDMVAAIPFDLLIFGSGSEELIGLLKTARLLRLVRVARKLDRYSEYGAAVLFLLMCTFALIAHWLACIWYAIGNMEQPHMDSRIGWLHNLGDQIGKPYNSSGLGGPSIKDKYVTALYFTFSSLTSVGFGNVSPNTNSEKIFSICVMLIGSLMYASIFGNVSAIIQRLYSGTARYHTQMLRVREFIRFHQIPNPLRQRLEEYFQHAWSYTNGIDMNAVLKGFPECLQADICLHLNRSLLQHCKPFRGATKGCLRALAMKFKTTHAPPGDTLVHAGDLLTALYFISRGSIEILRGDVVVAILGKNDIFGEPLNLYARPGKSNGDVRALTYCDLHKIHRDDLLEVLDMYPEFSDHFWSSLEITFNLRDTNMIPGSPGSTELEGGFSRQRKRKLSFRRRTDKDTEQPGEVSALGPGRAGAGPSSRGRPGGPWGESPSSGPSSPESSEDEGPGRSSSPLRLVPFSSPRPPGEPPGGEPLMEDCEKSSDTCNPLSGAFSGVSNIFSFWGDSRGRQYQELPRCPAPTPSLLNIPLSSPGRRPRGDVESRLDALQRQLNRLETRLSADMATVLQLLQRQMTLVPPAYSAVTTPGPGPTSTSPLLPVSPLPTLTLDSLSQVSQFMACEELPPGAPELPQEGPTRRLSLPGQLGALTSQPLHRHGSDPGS

Row | SMILES | hERG current change (%, negative = inhibition) at 10uM [%]
1 | CCCSc1nnc(CSc2nc(C)cc(C)n2)n1C | -6.94
2 | COc1cc2c(cc1OC)C1(Nc3c-2c(Cc2ccccc2)nn3-c2ccccc2)C(=O)Nc2ccccc21 (stereo not drawn) | 10.9
3 | CC(C)(C)C(=O)O/N=C1/C(=O)N(c2ccccc2)c2ccccc21 | 29.5
4 | Cc1ccccc1-n1cc(CNC(=O)C2CCC(=O)N(C3CC3)C2)cn1 (stereo not drawn) | 20.1
5 | COc1ccc(-c2csc(NC(=O)CC(C)C)n2)cc1 | -2.85
6 | Cc1cc(NC(=O)C2C3C=CC(C3)C2C(=O)O)no1 (stereo not drawn) | 13.3
7 | O=C1NCCc2c1[nH]c1ccc([N+](=O)[O-])cc21 | 4.49
8 | CC(NC(=O)/C(C#N)=C/c1ccc([N+](=O)[O-])o1)c1ccccc1 (stereo not drawn) | -4.19
9 | O=C(NCc1ccc2c(c1)OCO2)C(=O)NCC1OCCN1S(=O)(=O)c1ccc(Br)cc1 (stereo not drawn) | -17.4
10 | COc1cc(NC(=O)CSc2nnnn2Cc2ccc3c(c2)OCO3)cc(OC)c1 | 6.19
11 | CC(=O)NCCC1CCCCN1Cc1nc(Cc2cccc(C(F)(F)F)c2)no1 (stereo not drawn) | 19.1
12 | CCOC(=O)c1c(NC(=O)CSc2nnc(-c3ccco3)o2)sc(C(C)=O)c1C | -1.1
13 | O=C(COc1cccc2ccccc12)N/N=C/c1ccncc1 | -8.71
14 | O=C(Nc1ccccc1C(=O)N/N=C/c1ccco1)c1ccc(F)cc1 | -37.7
15 | COc1ccccc1N1CCN(C2CCCN(C(=O)Cn3cccn3)C2)CC1 (stereo not drawn) | 4.39
16 | CC(CN1C(C)CCCC1C)OC(=O)c1cccc(Br)c1.Cl (stereo not drawn) | -36.2
17 | Cc1ccc(CCN2CC(C(=O)NCCCN3CCCCC3)CC2=O)cc1 (stereo not drawn) | -4.86
18 | CCC(CO)NCc1ccc(OC2CCCC2)cc1.Cl (stereo not drawn) | -8.07
19 | COc1nc(-c2ccccc2)cc(-c2ccc(OC)c(OC)c2)n1 | -3.56
20 | Cc1nc(SCC(=O)NC(=O)NCCC(C)C)c2c(-c3cccs3)csc2n1 | 22.4
21 | O=C(NCC(=O)N1CCN(S(=O)(=O)c2cccc(F)c2)CC1)c1ccc(Br)o1 | -32
22 | CC(C)CN1C=C2C(=O)C(C)(OC(=O)C3CCCC3)C(=O)C=C2C=C1c1ccsc1 (stereo not drawn) | -0.438
23 | COc1cc(C(=O)NCc2nnc(SCC(=O)c3ccccc3)o2)cc(OC)c1OC | -7.43
24 | COCCNC(=O)c1ccc(NS(=O)(=O)c2cc(C)ccc2C)cc1 | -9.06
